Changes are numbered by the printed parent chain; changes in the protein carry UniProt numbers. The list shows a part of the results.
T1: RBFOX1 RRM (Homo sapiens, UniProt Q9NWB1 109-208)
T1 sequence: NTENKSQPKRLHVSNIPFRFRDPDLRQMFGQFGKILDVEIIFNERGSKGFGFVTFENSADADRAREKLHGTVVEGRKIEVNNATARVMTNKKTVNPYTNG

B1: GCCACCG (DNA:RNA)
RNA: GGGAGACCGGAAUUCAGAUUGUCCGCCACCGUUAAAUCCCGUCGUAGCCACCA
DNA 1: CAATCTGAATTCCGGTCTCCC
DNA 2: TGGTGGCTACGACGGGATT
B2: AAGUACG (DNA:RNA)
RNA: B1 RNA with G25A, C26A, C27G, A28U, C29A
DNA 1: CAATCTGAATTCCGGTCTCCC
DNA 2: TGGTGGCTACGACGGGATT
B3: GACCCGC (DNA:RNA)
RNA: B1 RNA with C26A, A28C, C30G, G31C
DNA 1: CAATCTGAATTCCGGTCTCCC
DNA 2: TGGTGGCTACGACGGGATT
B4: CUGUCCU (DNA:RNA)
RNA: B1 RNA with G25C, C26U, C27G, A28U, G31U
DNA 1: CAATCTGAATTCCGGTCTCCC
DNA 2: TGGTGGCTACGACGGGATT
B5: GCGCAAC (DNA:RNA)
RNA: B1 RNA with C27G, A28C, C29A, C30A, G31C
DNA 1: CAATCTGAATTCCGGTCTCCC
DNA 2: TGGTGGCTACGACGGGATT
B6: GCAAGGC (DNA:RNA)
RNA: B1 RNA with C27A, C29G, C30G, G31C
DNA 1: CAATCTGAATTCCGGTCTCCC
DNA 2: TGGTGGCTACGACGGGATT
B7: GCGAACC (DNA:RNA)
RNA: B1 RNA with C27G, C29A, G31C
DNA 1: CAATCTGAATTCCGGTCTCCC
DNA 2: TGGTGGCTACGACGGGATT
B8: GACCAGC (DNA:RNA)
RNA: B1 RNA with C26A, A28C, C29A, C30G, G31C
DNA 1: CAATCTGAATTCCGGTCTCCC
DNA 2: TGGTGGCTACGACGGGATT
B9: CCCGACU (DNA:RNA)
RNA: B1 RNA with G25C, A28G, C29A, G31U
DNA 1: CAATCTGAATTCCGGTCTCCC
DNA 2: TGGTGGCTACGACGGGATT
B10: ACAAGAA (DNA:RNA)
RNA: B1 RNA with G25A, C27A, C29G, C30A, G31A
DNA 1: CAATCTGAATTCCGGTCTCCC
DNA 2: TGGTGGCTACGACGGGATT
B11: CAACAUA (DNA:RNA)
RNA: GGGAGACCGGAAUUCAGAUUGUCCCAACAUAUUAAAUCCCGUCGUAGCCACCA
DNA 1: CAATCTGAATTCCGGTCTCCC
DNA 2: TGGTGGCTACGACGGGATT
B12: UCCUGGA (DNA:RNA)
RNA: B1 RNA with G25U, A28U, C29G, C30G, G31A
DNA 1: CAATCTGAATTCCGGTCTCCC
DNA 2: TGGTGGCTACGACGGGATT
B13: CUGAUUC (DNA:RNA)
RNA: B11 RNA with A26U, A27G, C28A, A29U, A31C
DNA 1: CAATCTGAATTCCGGTCTCCC
DNA 2: TGGTGGCTACGACGGGATT
B14: UUCACUG (DNA:RNA)
RNA: B1 RNA with G25U, C26U, C30U
DNA 1: CAATCTGAATTCCGGTCTCCC
DNA 2: TGGTGGCTACGACGGGATT
B15: UGAGGCA (DNA:RNA)
RNA: B11 RNA with C25U, A26G, C28G, A29G, U30C
DNA 1: CAATCTGAATTCCGGTCTCCC
DNA 2: TGGTGGCTACGACGGGATT
B16: GACGAGA (DNA:RNA)
RNA: B11 RNA with C25G, A27C, C28G, U30G
DNA 1: CAATCTGAATTCCGGTCTCCC
DNA 2: TGGTGGCTACGACGGGATT
B17: AUGUGUC (DNA:RNA)
RNA: B11 RNA with C25A, A26U, A27G, C28U, A29G, A31C
DNA 1: CAATCTGAATTCCGGTCTCCC
DNA 2: TGGTGGCTACGACGGGATT
B18: UUCGGCU (DNA:RNA)
RNA: B1 RNA with G25U, C26U, A28G, C29G, G31U
DNA 1: CAATCTGAATTCCGGTCTCCC
DNA 2: TGGTGGCTACGACGGGATT
B19: AAUUCGG (DNA:RNA)
RNA: B1 RNA with G25A, C26A, C27U, A28U, C30G
DNA 1: CAATCTGAATTCCGGTCTCCC
DNA 2: TGGTGGCTACGACGGGATT
B20: AAGUAAC (DNA:RNA)
RNA: B11 RNA with C25A, A27G, C28U, U30A, A31C
DNA 1: CAATCTGAATTCCGGTCTCCC
DNA 2: TGGTGGCTACGACGGGATT
B21: UGGGUGA (DNA:RNA)
RNA: B11 RNA with C25U, A26G, A27G, C28G, A29U, U30G
DNA 1: CAATCTGAATTCCGGTCTCCC
DNA 2: TGGTGGCTACGACGGGATT
B22: AAGAGGU (DNA:RNA)
RNA: B11 RNA with C25A, A27G, C28A, A29G, U30G, A31U
DNA 1: CAATCTGAATTCCGGTCTCCC
DNA 2: TGGTGGCTACGACGGGATT
B23: GACGCGC (DNA:RNA)
RNA: B1 RNA with C26A, A28G, C30G, G31C
DNA 1: CAATCTGAATTCCGGTCTCCC
DNA 2: TGGTGGCTACGACGGGATT
B24: GGGGUUU (DNA:RNA)
RNA: B11 RNA with C25G, A26G, A27G, C28G, A29U, A31U
DNA 1: CAATCTGAATTCCGGTCTCCC
DNA 2: TGGTGGCTACGACGGGATT
B25: AUCCUGU (DNA:RNA)
RNA: B11 RNA with C25A, A26U, A27C, A29U, U30G, A31U
DNA 1: CAATCTGAATTCCGGTCTCCC
DNA 2: TGGTGGCTACGACGGGATT
B26: AGCGUGU (DNA:RNA)
RNA: B1 RNA with G25A, C26G, A28G, C29U, C30G, G31U
DNA 1: CAATCTGAATTCCGGTCTCCC
DNA 2: TGGTGGCTACGACGGGATT
B27: AGAUAGA (DNA:RNA)
RNA: B11 RNA with C25A, A26G, C28U, U30G
DNA 1: CAATCTGAATTCCGGTCTCCC
DNA 2: TGGTGGCTACGACGGGATT
B28: UGUACGG (DNA:RNA)
RNA: B1 RNA with G25U, C26G, C27U, C30G
DNA 1: CAATCTGAATTCCGGTCTCCC
DNA 2: TGGTGGCTACGACGGGATT
B29: UAUCACA (DNA:RNA)
RNA: B11 RNA with C25U, A27U, U30C
DNA 1: CAATCTGAATTCCGGTCTCCC
DNA 2: TGGTGGCTACGACGGGATT
B30: GUAACUC (DNA:RNA)
RNA: B1 RNA with C26U, C27A, C30U, G31C
DNA 1: CAATCTGAATTCCGGTCTCCC
DNA 2: TGGTGGCTACGACGGGATT
B31: AGACAAU (DNA:RNA)
RNA: B11 RNA with C25A, A26G, U30A, A31U
DNA 1: CAATCTGAATTCCGGTCTCCC
DNA 2: TGGTGGCTACGACGGGATT

Target: T1, RBFOX1 RRM
Assay: EMSA; HiTS-Eq, 1 nM pool, 10 min; buffer printed only for the single-RNA assays: 10 mM Tris pH 7.5, 150 mM NaCl, 3.4 mM EDTA, 0.001% NP-40, 30 C
Conditions: tags: His6 N-terminal (pET28a); label: 5' 32P
In short: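 Purified wild-type or mutant RbFox RRM at increasing concentrations was equilibrated with 1 nM of 5′-radiolabelled RNA carrying 7 randomized nucleotides for 10 min in 50 µL. Unbound RNA was separated by 8% native PAGE and sequenced. Relative association constants came from read-count changes of each RNA species compared with the control reaction, normalised to the cognate motif.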

Row | Binder | binding signal
1 | B1 | 0.0074 KA relative to UGCAUGU
2 | B2 | 0.0114 KA relative to UGCAUGU
3 | B3 | 0.00709 KA relative to UGCAUGU
4 | B4 | 0.00988 KA relative to UGCAUGU
5 | B5 | 0.0089 KA relative to UGCAUGU
6 | B6 | 0.00843 KA relative to UGCAUGU
7 | B7 | 0.00673 KA relative to UGCAUGU
8 | B8 | 0.00826 KA relative to UGCAUGU
9 | B9 | 0.01 KA relative to UGCAUGU
10 | B10 | 0.000967 KA relative to UGCAUGU
11 | B11 | 0.000418 KA relative to UGCAUGU
12 | B12 | 0.00715 KA relative to UGCAUGU
13 | B13 | 0.00958 KA relative to UGCAUGU
14 | B14 | 0.0107 KA relative to UGCAUGU
15 | B15 | 0.0197 KA relative to UGCAUGU
16 | B16 | 0.015 KA relative to UGCAUGU

Row | Binder | binding signal
17 | B17 | 0.0152 KA relative to UGCAUGU
18 | B18 | 0.0136 KA relative to UGCAUGU
19 | B19 | 0.0123 KA relative to UGCAUGU
20 | B20 | 0.00575 KA relative to UGCAUGU
21 | B21 | 0.0273 KA relative to UGCAUGU
22 | B22 | 0.00938 KA relative to UGCAUGU
23 | B23 | 0.0188 KA relative to UGCAUGU
24 | B24 | 0.046 KA relative to UGCAUGU
25 | B25 | 0.00791 KA relative to UGCAUGU
26 | B26 | 0.0177 KA relative to UGCAUGU
27 | B27 | 0.00849 KA relative to UGCAUGU
28 | B28 | 0.0102 KA relative to UGCAUGU
29 | B29 | 0.000592 KA relative to UGCAUGU
30 | B30 | 0.0108 KA relative to UGCAUGU
31 | B31 | 0.00455 KA relative to UGCAUGU

Reference: paper PMC9911399, “Two distinct binding modes provide the RNA-binding protein RbFox with extraordinary sequence specificity”
